First the molecules themselves.
B1: unnamed (peptide)
chain: NLAENISRV
B2: unnamed (peptide)
chain: RLNEAAVTV
B3: unnamed (peptide)
chain: ILLPEPSIRSV
B4: unnamed (peptide)
chain: VLQYVVPEV
B5: unnamed (peptide)
chain: RLWGEPVNL
B6: unnamed (peptide)
chain: SLDPHAQVAV
B7: unnamed (peptide)
chain: VIIPKNWSL
B8: unnamed (peptide)
chain: KLADFGLARL
B9: unnamed (peptide)
chain: VLFGREVSPA
B10: unnamed (peptide)
chain: TLTSNIPEI
B11: unnamed (peptide)
chain: TLTEEGVIKV
B12: unnamed (peptide)
chain: ALLGKIEKV
B13: unnamed (peptide)
chain: FGPPIPKGV
B14: unnamed (peptide)
chain: KLGEIVTTI
B15: unnamed (peptide)
chain: SLGKVFGV
B16: unnamed (peptide)
chain: FILPKEIAV
B17: unnamed (peptide)
chain: FVNEIISRI
B18: unnamed (peptide)
chain: QQIGKVVQV
B19: unnamed (peptide)
chain: FVIRNIVEA
B20: unnamed (peptide)
chain: YLYESGETEKL
B21: unnamed (peptide)
chain: SIYPLHDVFV
B22: unnamed (peptide)
chain: FLLGHEIAHA
B23: unnamed (peptide)
chain: IVLPAGALHQV
B24: unnamed (peptide)
chain: SLQDEIQRV
B25: unnamed (peptide)
chain: TTLEQPPSV
B26: unnamed (peptide)
chain: HLDEAIHVL
B27: unnamed (peptide)
chain: SLLRVGWSV
B28: unnamed (peptide)
chain: FLLPKVQSIQL
B29: unnamed (peptide)
chain: ALSGLAVRL
B30: unnamed (peptide)
chain: RLSDQVLFV
B31: unnamed (peptide)
chain: ILDEHVQRV
B32: unnamed (peptide)
chain: NLLEIAPHL
B33: unnamed (peptide)
chain: ILLDDQFQPKL
B34: unnamed (peptide)
chain: FISEIIHQL
B35: unnamed (peptide)
chain: SLYHIYVAL
B36: unnamed (peptide)
chain: FMQHDVQEL

Whole data set: some 1,100 sequences, median “thermal melting temperature (Tm) of peptide-HLA complex” near 58, cut for the lowest 2% near 42. The list shows a part of the results.
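Note: cell lysates heated 10 min at 37–73 °C, remaining pHLA pulled down with pan-class I antibody, peptides quantified by DIA-MS versus 37 °C, Tm where half the complex is lost.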

The test has as its target HLA-A*02:01. Briefly: thermal melting temperature (Tm) of peptide-HLA complex; higher = more thermostable pHLA complex. The note with it: C1R-A*02:01.
Regarding B1, the thermal melting temperature was determined as 59.1 °C. Sequence B2 gave a thermal melting temperature of 58 °C.

Turning to B3, the thermal melting temperature came out at 60.3 °C. With B4, the thermal melting temperature came to 59.7 °C. For the sequence B5, the thermal melting temperature was 63.2 °C. Then B6, with 48.9 °C; and B7, with 54.7 °C. Then B8, with 58.3 °C. In the case of B9, the thermal melting temperature stood at 54 °C. Consider B10, for which the thermal melting temperature amounted to 57.4 °C. Then B11, with 57.2 °C; and B12, with 58.1 °C.

B13: the thermal melting temperature came to 54.1 °C.

B14 had a thermal melting temperature of 57.2 °C. In turn, B15 gave a thermal melting temperature of 62.9 °C. For B16 the value was 58.7 °C; for B17, 59.8 °C; for B18, 53.4 °C. For B19 the value was 52.1 °C; for B20, 52.6 °C; for B21, 49.5 °C.

B22: the thermal melting temperature came out at 44.6 °C. For B23 the value was 61.9 °C; for B24, 60.9 °C; for B25, 50.3 °C. The sequence B26 registered a thermal melting temperature of 51.9 °C. The sequence B27 showed a thermal melting temperature of 59.6 °C.

Consider B28, for which the thermal melting temperature worked out at 61.5 °C.

As to B29, the thermal melting temperature is 57 °C. For B30 the value was 62.4 °C; for B31, 55.3 °C; for B32, 52.1 °C. On to B33, for which the thermal melting temperature was found to be 59.1 °C. As for B34, the thermal melting temperature amounted to 58.2 °C.

On to B35, for which the thermal melting temperature is 55.7 °C. For B36 the value was 41.6 °C.

(Values after the supplement of paper PMC7726561.)
